Measurements as given in PubChem BioAssay (NCATS).
Several values for one entry are separate records, joined by “and”; a condition that tells them apart may be missing. Equal values may be shown once. The inconclusive results got no clear call from the source; some entries with a clear call stand among them for comparison. Where the call is inconclusive, the potency comes from a doubtful curve fit. Activity calls are given as the source filed them. Calls come from the whole dose curve; as a rule, active = well fitted curve in the direction sought with a large enough effect; inconclusive = small, poorly fitted or top-dose-only effect, or another doubt; inactive = no such curve, though single readings can be large; an effect the other way counts as inactive or inconclusive.

Tests used:
[1] = Viability qHTS for spleen associated tyrosine kinase inhibitor (SYKi) naive MV4-11 cells (AID 1963823); conditions: MV4-11 AML viability, CellTiter-Glo luminescence, 72 h; series mostly up to 45 µM; note: nearly all actives have a fitted effect of over 40% in size
In short: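 Viability of MV4-11 AML cells lacking prior SYK inhibitor exposure is scored by CellTiter-Glo luminescence following 72 hr compound incubation at 37 C, 5% CO2, seeded at 500 cells per well.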

[2] = Viability qHTS for spleen associated tyrosine kinase inhibitor (SYKi) drug resistant MV4-11 cells (AID 1963824); conditions: SYKi-resistant MV4-11 viability, CellTiter-Glo, 72 h; series mostly up to 45 µM; note: nearly all actives have a fitted effect of over 35% in size
In short: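 SYK inhibitor-resistant MV4-11 AML cells, 500 per well, added to predispensed compounds and incubated 72 hr at 37 C, 5% CO2. Viability measured by CellTiter-Glo luminescence after 10 min at room temperature.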

[3] = Quantitative highthroughput screen to assess conditional lethalithy of NOMO1 cells grown in RPMI1640 with untreated serum (RPMI+s) (AID 1963876); conditions: NOMO1 AML cells in RPMI+serum, CellTiter-Glo viability, 48 h; viability: at 45.8 µM (top of the series); note: nearly all actives have a fitted effect of over 35% in size
In short: (§1)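 Each medium arm—HPLM with 10% dialyzed FBS, or RPMI1640 with 5 mM glucose and 10% untreated or dialyzed FBS—was screened against an 11-point, 3-fold compound titration for 48 h at 37 °C, with CellTiter-Glo luminescence as endpoint.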

[4] = Quantitative highthroughput screen to assess conditional lethalithy of NOMO1 cells grown in RPMI1640 with dialyzed fetal bovine serum (RPMI+ds) (AID 1963877); conditions: NOMO1 in RPMI+dialyzed FBS viability, ATP luminescence, 48 h; series mostly up to 45.8 µM; note: nearly all actives have a fitted effect of over 30% in size
In short: as §1

[5] = Quantitative highthroughput screen to assess conditional lethalithy of NOMO1 cells grown in Human Plasma-Like Medium with dialyzed fetal bovine serum (HPLM+ds) (AID 1963878); conditions: NOMO1 AML cells in HPLM+ds, CellTiter-Glo viability, 48 h; viability: at 45.8 µM (top of the series); note: nearly all actives have a fitted effect of over 35% in size
In short: as §1

[6] = Quantitative highthroughput screen to assess conditional lethalithy of P12 Ichikawa cells grown in Human Plasma-Like Medium with dialyzed fetal bovine serum (HPLM+ds) (AID 1963879); conditions: ATP luminescence, 48 h; Potency: viability; series mostly up to 45.8 µM; note: nearly all actives have a fitted effect of over 35% in size
In short: as §1

[7] = Quantitative highthroughput screen to assess conditional lethalithy of SEM cells grown in Human Plasma-Like Medium with dialyzed fetal bovine serum (HPLM+ds) (AID 1963882); conditions: SEM B-ALL cells in HPLM+ds, CellTiter-Glo viability, 48 h; series mostly up to 45.8 µM; note: nearly all actives have a fitted effect of over 35% in size
In short: as §1

[8] = Quantitative highthroughput screen to assess conditional lethalithy of SEM cells grown in RPMI1640 with unreated serum (RPMI+s) (AID 1963883); conditions: SEM B-ALL cells, CellTiter-Glo viability, 48 h; viability: at 45.8 µM (top of the series); note: nearly all actives have a fitted effect of over 35% in size
In short: as §1

[9] = Quantitative highthroughput screen to assess conditional lethalithy of SEM cells grown in RPMI1640 with dialyzed fetal bovine serum (RPMI+ds) (AID 1963884); conditions: SEM B-ALL cells, RPMI+dialyzed FBS, CellTiter-Glo viability, 48 h; viability: at 45.8 µM (top of the series); note: nearly all actives have a fitted effect of over 35% in size
In short: as §1

[10] = Cellular viability qHTS for adrenocortical cancer (ACC) cell line NCI-H295R (AID 1963990); conditions: CellTiter-Glo ATP luminescence, 48 h; series mostly up to 46.1 µM; note: nearly all actives have a fitted effect of over 60% in size
In short: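 Adrenocortical carcinoma cells, suspended at 300 000 cells/mL in serum-free DMEM plus ITS, rested overnight before pin transfer of compound. After two days' incubation, ATP-dependent luminescence was recorded and curve-fitted.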

[11] = Quantitative highthroughput screen to assess conditional lethalithy of P12 Ichikawa cells grown in RPMI1640 with dialyzed fetal bovine serum (RPMI+ds) (AID 1963880); conditions: ATP luminescence, 48 h; Potency: P12-Ichikawa viability; series mostly up to 45.8 µM; note: nearly all actives have a fitted effect of over 35% in size
In short: as §1

[12] = Cellular viability qHTS for adrenocortical cancer (ACC) cell line SW-13 (AID 1963989); conditions: SW-13 ACC cells viability, CellTiter-Glo, 48 h; activity (max response): stronger effect = lower value; note: nearly all actives have a fitted effect of over 65% in size
In short: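 IC50 and maximal-response values come from four-parameter logistic fits of titration data. SW-13 cells in serum-free medium received compounds (up to 46 uM final) for 48 h before CellTiter-Glo luminescence.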

[13] = Quantitative highthroughput screen to assess conditional lethalithy of P12 Ichikawa cells grown in RPMI1640 with untreated serum (RPMI+s) (AID 1963881); conditions: ATP luminescence, 48 h; Potency: viability; series mostly up to 45.8 µM; note: nearly all actives have a fitted effect of over 35% in size
In short: as §1
Potency is the fitted concentration of half-maximal effect; tags give direction and shape of the fitted curve.

| SMILES | Potency [1] | Potency [2] | Potency [3] | Potency [4] | Potency [5] | Potency [6] | Potency [7] | Potency [8] | Potency [9] | Potency [10] | Potency [11] | Potency [12] | Potency [13] |
| --- | --- | --- | --- | --- | --- | --- | --- | --- | --- | --- | --- | --- | --- |
| Cc1cc(C(C)(C)C)cc(C)c1CC1=NCCN1 | inconclusive: 16.8 µM [cytotoxic, single point] and active: 3.72 µM | inconclusive: 23.7 µM [cytotoxic, single point] and active: 5.25 µM | inconclusive: 4.69 µM [cytotoxic, full curve] | inconclusive: 1.66 µM [cytotoxic, full curve] | inconclusive: 2.96 µM [cytotoxic, full curve] | inactive | inconclusive: 0.0012 µM [rising, full curve, poor fit] | inactive | inactive | inactive and inconclusive: 35.5 µM [cytotoxic, single point] |  |  |  |
| COc1cc2c(NC3CCN(C(C)C)CC3)nc(C3CCCCC3)nc2cc1OCCCN1CCCC1 | inconclusive: 2.91 µM [cytotoxic, full curve] and inconclusive: 2.95 µM [cytotoxic, full curve] | inconclusive: 2.59 µM [cytotoxic, full curve] and active: 3.32 µM | inconclusive: 29.6 µM [cytotoxic, single point] | active: 20.9 µM | active: 23.5 µM | inconclusive: 26.4 µM [cytotoxic, single point] | active: 16.6 µM | active: 26.4 µM | inconclusive: 20.9 µM [cytotoxic, partial curve] | active: 12.6 µM | active: 20.9 µM | active: 17.8 µM |  |
| CN1CCc2c(c3ccccc3n2Cc2ccc(C(=O)NO)cc2)C1 | inconclusive: 29.1 µM [cytotoxic, single point] | inconclusive: 20.6 µM [cytotoxic, partial curve] and active: 14.8 µM | inconclusive: 37.2 µM [cytotoxic, single point] | inconclusive: 18.7 µM [cytotoxic, partial curve, poor fit] | inconclusive: 16.6 µM [cytotoxic, partial curve] | inconclusive: 10.5 µM [cytotoxic, full curve, poor fit] |  | inconclusive: 11.8 µM [cytotoxic, full curve] | inconclusive: 11.8 µM [cytotoxic, full curve, poor fit] |  |  | inconclusive: 35.5 µM [cytotoxic, single point] |  |
| N#C[C@H]1C[C@H]2C[C@@H]2N1C(=O)[C@@H](N)C12CC3CC(CC(O)(C3)C1)C2 | inconclusive: 29.9 µM [cytotoxic, single point] | inconclusive: 33.5 µM [cytotoxic, single point] | inconclusive: 37.2 µM [cytotoxic, single point] | inconclusive: 20.9 µM [cytotoxic, partial curve] | active: 10.5 µM |  | inconclusive: 37.2 µM [cytotoxic, single point] | inconclusive: 0.0418 µM [cytotoxic, full curve, poor fit] | inactive |  | inactive |  | inactive |
| CN(C)CCCN=c1c2ccccc2n(C)c2[nH]c(=O)n(C)c(=O)c12 | active: 5.9 µM | active: 8.33 µM | inconclusive: 29.6 µM [cytotoxic, single point] | active: 20.9 µM | inconclusive: 37.2 µM [cytotoxic, single point] | active: 26.4 µM |  |  |  | active: 28.2 µM | active: 18.7 µM |  |  |
| C1CCC(C(CC2CCCCN2)C2CCCCC2)CC1 (configuration not stated) | inconclusive: 2.66 µM [cytotoxic, full curve] and active: 2.95 µM | inconclusive: 2.66 µM [cytotoxic, full curve] | inconclusive: 29.6 µM [cytotoxic, single point] | active: 23.5 µM | inconclusive: 26.4 µM [cytotoxic, single point] | inconclusive: 29.6 µM [cytotoxic, single point] |  |  | inconclusive: 8.33 µM [cytotoxic, full curve] | inconclusive: 18.4 µM [cytotoxic, single point] and active: 7.08 µM | inconclusive: 26.4 µM [cytotoxic, single point] | inconclusive: 29.1 µM [cytotoxic, single point] |  |
| Cc1c(C(=O)NN2CCCCC2)nn(-c2ccc(Cl)cc2Cl)c1-c1ccc(Cl)cc1 | inconclusive: 23.7 µM [cytotoxic, single point] and inconclusive: 20.9 µM [cytotoxic, partial curve] | inconclusive: 3.32 µM [cytotoxic, full curve] | inconclusive: 0.296 µM [cytotoxic, full curve] | inconclusive: 0.526 µM [cytotoxic, full curve] | inconclusive: 0.332 µM [cytotoxic, full curve] | inconclusive: 2.64 µM [cytotoxic, full curve] |  |  | inactive | active: 20.6 µM and active: 28.2 µM |  | inconclusive: 18.4 µM [cytotoxic, single point] and active: 28.2 µM | inconclusive: 2.64 µM [cytotoxic, full curve] |
| CC1(COc2ccc3c(c2)ncn3-c2ccc3cccc(N4CCC(N)CC4)c3n2)COC1 | inconclusive: 8.2 nM [cytotoxic, full curve] and inconclusive: 9.3 nM [cytotoxic, full curve] | active: 11.6 nM and active: 10.5 nM | inconclusive: 11.8 µM [cytotoxic, partial curve, poor fit] | inconclusive: 14.8 µM [cytotoxic, partial curve, poor fit] | inconclusive: 18.7 µM [cytotoxic, partial curve, poor fit] | active: 10.5 µM | inconclusive: 0.332 µM [cytotoxic, partial curve] |  | inconclusive: 0.0332 µM [cytotoxic, full curve] |  |  |  | inconclusive: 3.72 µM [cytotoxic, full curve] |
| COc1ccccc1[C@H](c1cccc2ccccc12)[C@@](C)(C#N)C(=O)N1CCC(c2cccc(C(F)(F)F)c2)CC1 | inconclusive: 1.84 µM [cytotoxic, full curve] | active: 8.33 µM | inconclusive: 18.7 µM [cytotoxic, partial curve] | inconclusive: 14.8 µM [cytotoxic, partial curve] | inconclusive: 16.6 µM [cytotoxic, partial curve] |  | inconclusive: 9.35 µM [cytotoxic, partial curve] | inconclusive: 16.6 µM [cytotoxic, partial curve] | inconclusive: 16.6 µM [cytotoxic, partial curve] |  | inconclusive: 14.8 µM [cytotoxic, partial curve] |  | inconclusive: 6.62 µM [cytotoxic, partial curve] |
| N#CNC(=NCCCCCCOc1ccc(Cl)cc1)Nc1ccncc1 | inconclusive: 0.0033 µM [cytotoxic, full curve] | active: 0.0042 µM | inconclusive: 0.003 µM [cytotoxic, full curve] | inconclusive: 0.0033 µM [cytotoxic, full curve] | inconclusive: 0.0047 µM [cytotoxic, full curve] | inconclusive: 0.0019 µM [cytotoxic, full curve] |  |  |  |  |  | active: 0.0398 µM |  |
| Cc1cn2c(-c3cn[nH]c3)cnc2c(Nc2ccc(C(=O)N3CCNCC3)cc2F)n1 | inconclusive: 1.64 µM [cytotoxic, full curve] | inconclusive: 2.91 µM [cytotoxic, full curve] | inconclusive: 37.2 µM [cytotoxic, partial curve, poor fit] | inconclusive: 16.6 µM [cytotoxic, partial curve] | inconclusive: 18.7 µM [cytotoxic, partial curve] | inconclusive: 18.7 µM [cytotoxic, partial curve] | active: 13.2 µM | active: 14.8 µM |  |  | inconclusive: 14.8 µM [cytotoxic, partial curve] |  |  |
| COc1nccc(-c2c(-c3ccc(F)cc3)ncn2C2CCNCC2)n1 | inconclusive: 16.4 µM [cytotoxic, partial curve] | inconclusive: 18.6 µM [cytotoxic, partial curve, poor fit] | inconclusive: 0.0012 µM [rising, full curve] | inconclusive: 0.0012 µM [rising, full curve] | inconclusive: 16.6 µM [cytotoxic, partial curve] | inactive |  | inconclusive: 0.0526 µM [cytotoxic, full curve, poor fit] | inconclusive: 0.0012 µM [rising, full curve, poor fit] |  |  |  | inactive |
| CCNC(=O)Nc1ccc2ncc(Nc3ccc(C)cc3)nc2n1 | inconclusive: 0.13 µM [rising, full curve, poor fit] | inactive | inconclusive: 13.2 µM [cytotoxic, partial curve, poor fit] | inconclusive: 18.7 µM [cytotoxic, partial curve, poor fit] | inconclusive: 16.6 µM [cytotoxic, partial curve] | inconclusive: 33.2 µM [cytotoxic, single point] | inconclusive: 14.8 µM [cytotoxic, partial curve] | inconclusive: 14.8 µM [cytotoxic, partial curve] |  |  |  |  | inactive |
